Experimental data from PubChem BioAssay (NCATS).
The inconclusive results got no clear call from the source; some entries with a clear call stand among them for comparison. No potency is given beside an inconclusive call; the fits are too rough. Calls of active or inactive are those of the source. Calls follow the shape of the dose curve; as a rule, active = well fitted inhibition curve with a large enough effect; inconclusive = small, poorly fitted or top-dose-only effect; inactive = no such curve, though single readings can be large or run the other way.

What follows are compounds tested against Cytochrome P450 3A7 (Homo sapiens) (UniProt P24462) (assay: Cytochrome P450 family 3 subfamily A member 7 (CYP3A7) small molecule antagonists: luciferase biochemical qHTS assay (AID 1963596; also: nearly all actives have a fitted effect of over 40% in size)). Settings: P450-Glo CYP3A7 enzyme luminescence, 1 h; series mostly up to 57.4 µM; activity change, negative = inhibition: at the top concentration.
Method in brief: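 P450-Glo luminescent assay: CYP3A7 enzyme converts a proluciferin substrate to luciferin, detected by luciferase reagent; light proportional to activity. Compounds in DMSO preincubated 10 min with enzyme-substrate mix at room temperature, then NADPH regeneration added for 1 h.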
% is scaled to controls: 0 for no effect and ±100 for the full control effect; potency is read from the fitted curve at half-maximal effect; tags tell the direction and shape of the fitted curve.

Chain of UniProt P24462 (P24462 whole entry, looked up): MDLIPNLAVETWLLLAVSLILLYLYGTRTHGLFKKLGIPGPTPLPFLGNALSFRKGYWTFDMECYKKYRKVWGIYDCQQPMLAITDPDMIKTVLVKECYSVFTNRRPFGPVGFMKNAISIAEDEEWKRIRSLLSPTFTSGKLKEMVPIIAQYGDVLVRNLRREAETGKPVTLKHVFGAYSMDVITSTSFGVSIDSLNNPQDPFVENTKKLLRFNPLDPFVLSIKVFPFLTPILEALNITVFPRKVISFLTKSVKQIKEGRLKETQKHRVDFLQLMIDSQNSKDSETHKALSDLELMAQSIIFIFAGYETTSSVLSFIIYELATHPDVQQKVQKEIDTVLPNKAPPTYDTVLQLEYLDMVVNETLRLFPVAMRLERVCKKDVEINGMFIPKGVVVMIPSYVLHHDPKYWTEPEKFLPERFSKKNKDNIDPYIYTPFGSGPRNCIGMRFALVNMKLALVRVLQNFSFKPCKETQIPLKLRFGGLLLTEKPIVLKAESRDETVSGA

Q: Which Potency does the source give for `CCOc1ccc(-c2cc(NC(=O)Nc3ccccc3Cl)c(C(=O)OC)s2)cc1` here?
A: inconclusive [inhibitor, partial curve]

Q: For `Cc1oc2nc3c(c(NC(=O)CN4CCCC4=O)c2c1C)CCCC3`, which Potency is on record?
A: inconclusive [inhibitor, partial curve, poor fit]

Q: How did the “activity change, negative = inhibition” value turn out when `Cc1ccc(C(=O)c2cn(CC(=O)Nc3ccc4c(c3)OCCO4)c3nc(C)ccc3c2=O)cc1` was run?
A: inactive: -31%

Q: For `C[N+]1(CCCCC[N+]2(C)CCCC2)CCCC1`, which “activity change, negative = inhibition” value is on record?
A: inactive: -7.69%

Q: For `CCOc1ccc(-c2nonc2NC(=O)c2oc3c(C)c(C)ccc3c2C)cc1OCC`, which Potency is on record?
A: inconclusive [inhibitor, partial curve, poor fit]

Q: How did the Potency turn out when `Cc1nc2nc(NC(=O)c3cccc(Cl)c3)[nH]n2c(=O)c1Cc1ccccc1` was run?
A: inconclusive [inhibitor, partial curve]

Q: For `OCC=Cc1ccccc1`, which “activity change, negative = inhibition” value is on record?
A: inactive: 0%

Q: `CNC1CCN(C(Cc2cccc(-c3ccncc3)c2)C(=O)c2sc3c(F)ccc(F)c3c2Cl)CC1` (stereo not given) was tested. Which Potency did it give?
A: active: 2.39 µM

Q: `CC1(O)CCC(C(C)(C)O)CC1` (stereo not given) was tested. Which “activity change, negative = inhibition” value did it give?
A: inactive: -7.2%

Q: With `CC1=CC(O)=NS(=O)(=O)O1` as the compound, how does the “activity change, negative = inhibition” value read?
A: inactive: -1.54%

Q: With `CCC(/C=C/[C@@H](C)[C@H]1CCC2C3CC=C4C[C@@H](O)CC[C@]4(C)C3CC[C@@]21C)C(C)C` (stereo not given in full) as the compound, how does the Potency read?
A: inconclusive [inhibitor, partial curve, poor fit]

Q: With `CC(=O)SCC(=O)c1ccc(NS(=O)(=O)c2ccc(OCCCN(C)C)cc2)nc1` as the compound, how does the “activity change, negative = inhibition” value read?
A: inactive: -13.5%

Q: With `O=C(O)CCC(=O)C(=O)O` as the compound, how does the “activity change, negative = inhibition” value read?
A: inactive: -1.01%

Q: For `Cc1ccc(Nc2nnc(-c3ccc(C)c(S(=O)(=O)NCc4nc5ccccc5[nH]4)c3)c3ccccc23)cc1`, which Potency is on record?
A: inconclusive [inhibitor, full curve]

Q: Which Potency does the source give for `CC1(C#N)CCN(c2c(C(=O)N3CCN(S(C)(=O)=O)CC3)cnc3ccc(F)cc23)CC1` here?
A: inconclusive [inhibitor, single point]

Q: For `COC(=O)Cc1cccc(NC(=O)C2=C(C)NC(Nc3nc4ccccc4o3)=NC2c2ccccc2Cl)c1` (stereo not given), which Potency is on record?
A: inconclusive [inhibitor, partial curve, poor fit]

Q: How did the “activity change, negative = inhibition” value turn out when `NC(=O)OCC(O)COc1ccc(Cl)cc1` (stereo not given) was run?
A: inactive: 36.4%

Q: With `CN1CCN(C(=O)C2CCCCC2)CC1` as the compound, how does the “activity change, negative = inhibition” value read?
A: inactive: -12.1%

Q: For `CC(=O)c1ccc(N2CCN(c3ncnc4c3cnn4C)CC2)cc1`, which Potency is on record?
A: inconclusive [inhibitor, partial curve, poor fit]

Q: Which Potency does the source give for `CCN(CCCO)CCCOc1ccc2c(Nc3cc(CC(=O)Nc4cccc(F)c4)[nH]n3)ncnc2c1` here?
A: active: 14.1 µM

Q: For `CCCCC(O)c1ccccc1` (stereo not given), which “activity change, negative = inhibition” value is on record?
A: inactive: 1.72%

Q: Which “activity change, negative = inhibition” value does the source give for `Cc1c(O)cc2c(c1C)O[C@](C)(CCC[C@H](C)CCC[C@H](C)CCCC(C)C)CC2` here?
A: inactive: -5.97%

Q: For `Nc1nc(N)c2nc(CNc3ccc(C(=O)N[C@@H](CCC(=O)O)C(=O)O)cc3)cnc2n1`, which “activity change, negative = inhibition” value is on record?
A: inactive: 0%

Q: How did the Potency turn out when `C[S+](=O)([O-])Nc1ccc(-c2ccc3nc(-c4ccc(OC(F)(F)F)cc4)[nH]c3c2)cc1` was run?
A: inconclusive [inhibitor, single point]

Q: Which “activity change, negative = inhibition” value does the source give for `CCOc1ccc(S(=O)(=O)O)c2cccnc12` here?
A: inactive: -3.15%

Q: How did the Potency turn out when `C[S+](CC[C@H](N)C(=O)O)C[C@H]1O[C@@H](n2cnc3c(N)ncnc32)[C@H](O)[C@@H]1O` (stereo not given in full) was run?
A: inconclusive [inhibitor, partial curve]

Q: Which “activity change, negative = inhibition” value does the source give for `CCCc1c2oc(C(=O)O)cc(=O)c2cc2c(=O)cc(C(=O)O)n(CC)c12` here?
A: inactive: 20.9%

Q: Which Potency does the source give for `CN1C(=O)c2ccccc2Sc2ccc(NC(=O)Cc3ccc(Cl)cc3)cc21` here?
A: inconclusive [inhibitor, full curve]

Q: Which Potency does the source give for `CCC=CCC=CCC=CCCCCCCCC(=O)O` here?
A: inconclusive [inhibitor, single point]

Q: How did the Potency turn out when `O=S(=O)(Cc1ccccc1)Nc1ccc(-c2ccc3c(cnn3-c3ccc(F)cc3)c2)c(C(F)(F)F)c1` was run?
A: active: 12 µM

Q: How did the Potency turn out when `CCOCCOC(=O)/C=C/c1ccc(OC)cc1` was run?
A: inconclusive [inhibitor, partial curve, poor fit]

Q: Which Potency does the source give for `O=[N+]([O-])c1cccc2[nH]c(CNc3nc(N4CCOCC4)nc4c3ncn4-c3ccsc3)nc12` here?
A: inconclusive [inhibitor, full curve]

Q: Which Potency does the source give for `CCCCC1CCC(CCCC(C)CCC(=O)O)CC1` (stereo not given) here?
A: inconclusive [inhibitor, partial curve]

Q: For `CN1C(C)(C)CCCC1(C)C`, which Potency is on record?
A: inconclusive [inhibitor, single point]

Q: For `CCOC(=O)c1cnn(-c2ccc(NC(=O)C(Cl)=C(Cl)Cl)cc2)c1C(F)(F)F`, which Potency is on record?
A: inconclusive [inhibitor, partial curve]

Q: How did the Potency turn out when `Cc1cc(N2CCN(C(=O)Oc3ccc(-c4ccccc4)cn3)CC2)c2ccccc2n1` was run?
A: inconclusive [inhibitor, single point]

Q: `C=C(C)[C@H]1CC=C(C)CC1` was tested. Which “activity change, negative = inhibition” value did it give?
A: inactive: 3.11%

Q: How did the Potency turn out when `CCOc1ccc(NC(=O)Cn2cc(C(=O)c3ccco3)c3ccccc32)cc1` was run?
A: inconclusive [inhibitor, full curve, poor fit]

Q: With `C=CS(=O)(=O)O` as the compound, how does the “activity change, negative = inhibition” value read?
A: inactive: 0.832%

Q: How did the Potency turn out when `Cc1cccc(NC(c2ccccc2C)c2ccc3ccc(C)nc3c2O)n1` (stereo not given) was run?
A: inconclusive [inhibitor, partial curve, poor fit]
